Laboratory results from PubChem BioAssay AID504333 (National Center for Advancing Translational Sciences (NCATS), 2011).
Screen size: about 360,000 compounds; about 16,000 (4.4%) were called active. The inconclusive results got no clear call from the source; some entries with a clear call stand among them for comparison. Calls follow the shape of the dose curve; as a rule, active = well fitted inhibition curve with a large enough effect; inconclusive = small, poorly fitted or top-dose-only effect; inactive = no such curve, though single readings can be large or run the other way. A potency beside an inconclusive call is a rough fit, not a confirmed value.

target: Bromodomain adjacent to zinc finger domain protein 2B (Homo sapiens) (UniProt Q9UIF8); experiment: qHTS Assay for Inhibitors of BAZ2B; conditions: AlphaScreen BAZ2B-H3K14Ac peptide displacement; series mostly up to 114 µM; also: nearly all actives have a fitted effect of over 60% in size
Method in brief: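 Multi-concentration screen (max 110 uM) measuring displacement of acetylated histone H3 peptide from BAZ2B by AlphaScreen, using 50 nM protein, 50 nM peptide and 10 ug/mL streptavidin donor plus Ni-chelate acceptor beads.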
Potency is read from the fitted curve at half-maximal effect; tags tell the direction and shape of the fitted curve.

Chain of UniProt Q9UIF8 (Q9UIF8 whole entry, looked up, the tested form may be a part): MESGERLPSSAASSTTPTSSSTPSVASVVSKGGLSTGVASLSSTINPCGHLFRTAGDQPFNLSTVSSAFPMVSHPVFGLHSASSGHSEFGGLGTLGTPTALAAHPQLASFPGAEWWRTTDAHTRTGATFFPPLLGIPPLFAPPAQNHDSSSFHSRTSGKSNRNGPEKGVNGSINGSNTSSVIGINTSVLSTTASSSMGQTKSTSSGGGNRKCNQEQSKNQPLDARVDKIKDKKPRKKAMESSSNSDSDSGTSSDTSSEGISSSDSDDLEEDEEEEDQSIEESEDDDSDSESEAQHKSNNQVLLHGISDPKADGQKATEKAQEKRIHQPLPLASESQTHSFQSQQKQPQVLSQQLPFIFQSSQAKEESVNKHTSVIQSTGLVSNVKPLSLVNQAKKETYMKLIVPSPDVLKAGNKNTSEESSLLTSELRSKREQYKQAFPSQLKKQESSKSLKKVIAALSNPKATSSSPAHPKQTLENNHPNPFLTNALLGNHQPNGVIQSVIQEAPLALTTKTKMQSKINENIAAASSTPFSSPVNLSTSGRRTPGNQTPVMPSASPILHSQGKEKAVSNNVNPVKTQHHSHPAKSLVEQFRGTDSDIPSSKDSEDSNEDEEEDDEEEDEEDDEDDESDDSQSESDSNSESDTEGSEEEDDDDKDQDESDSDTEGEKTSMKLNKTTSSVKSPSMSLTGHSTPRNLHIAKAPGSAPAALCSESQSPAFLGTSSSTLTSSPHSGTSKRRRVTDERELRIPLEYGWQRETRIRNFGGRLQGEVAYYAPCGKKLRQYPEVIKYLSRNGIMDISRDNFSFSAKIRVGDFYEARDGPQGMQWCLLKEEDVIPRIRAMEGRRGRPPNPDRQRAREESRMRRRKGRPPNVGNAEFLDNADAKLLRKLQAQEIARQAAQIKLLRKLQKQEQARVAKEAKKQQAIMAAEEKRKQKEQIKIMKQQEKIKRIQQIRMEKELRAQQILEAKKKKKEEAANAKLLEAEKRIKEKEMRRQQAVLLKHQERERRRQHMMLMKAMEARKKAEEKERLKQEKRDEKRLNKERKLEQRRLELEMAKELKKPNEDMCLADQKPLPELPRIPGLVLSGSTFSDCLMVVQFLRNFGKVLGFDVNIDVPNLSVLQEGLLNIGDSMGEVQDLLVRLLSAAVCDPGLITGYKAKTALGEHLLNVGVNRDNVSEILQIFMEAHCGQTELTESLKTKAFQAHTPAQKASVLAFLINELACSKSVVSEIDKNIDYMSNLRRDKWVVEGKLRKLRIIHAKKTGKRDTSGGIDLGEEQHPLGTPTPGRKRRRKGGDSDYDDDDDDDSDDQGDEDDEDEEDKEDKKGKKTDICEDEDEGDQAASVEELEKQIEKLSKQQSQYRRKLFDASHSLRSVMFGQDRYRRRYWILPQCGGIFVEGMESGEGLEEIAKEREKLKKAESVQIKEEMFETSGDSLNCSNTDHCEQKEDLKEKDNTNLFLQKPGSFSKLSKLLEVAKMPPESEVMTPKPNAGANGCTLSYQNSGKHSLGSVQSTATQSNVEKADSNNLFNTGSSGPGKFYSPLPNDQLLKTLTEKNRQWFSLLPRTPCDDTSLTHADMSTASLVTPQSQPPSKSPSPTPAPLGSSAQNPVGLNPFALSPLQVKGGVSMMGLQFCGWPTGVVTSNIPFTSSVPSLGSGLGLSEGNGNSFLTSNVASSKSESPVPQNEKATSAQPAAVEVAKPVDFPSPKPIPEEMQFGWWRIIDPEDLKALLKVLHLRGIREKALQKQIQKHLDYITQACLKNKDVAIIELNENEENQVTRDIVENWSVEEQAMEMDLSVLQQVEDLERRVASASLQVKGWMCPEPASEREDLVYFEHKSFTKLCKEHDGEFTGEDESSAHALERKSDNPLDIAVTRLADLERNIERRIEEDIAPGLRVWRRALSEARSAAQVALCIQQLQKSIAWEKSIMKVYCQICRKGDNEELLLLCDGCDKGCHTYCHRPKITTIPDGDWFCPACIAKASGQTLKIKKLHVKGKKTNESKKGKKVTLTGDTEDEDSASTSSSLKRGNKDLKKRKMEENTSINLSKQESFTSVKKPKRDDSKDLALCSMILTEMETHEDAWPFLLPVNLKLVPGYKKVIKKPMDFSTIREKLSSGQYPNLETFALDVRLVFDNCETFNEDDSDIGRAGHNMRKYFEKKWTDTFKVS

SMILES	Potency
Cc1ccnc(N/C=C(\C#N)c2nc(-c3cccc(Br)c3)cs2)c1	inconclusive: 89.1 µM [inhibitor, single point]
COc1cc(C)c(Cl)cc1S(=O)(=O)NCCc1c(C)[nH]c2ccccc12	active: 31.6 µM
COc1ccc2oc(=O)c(-c3csc(/C(C#N)=C/c4ccc(F)cc4)n3)cc2c1	inactive
CCOc1ccc(N2CC(C(=O)N3CCN(C(=O)c4ccco4)CC3)CC2=O)cc1 (stereo not given)	inactive
O=S(=O)(c1ccccc1F)N1CCN(Cc2cc3c(cc2O)OCO3)CC1	inconclusive: 89.1 µM [inhibitor, single point]
CCCOc1ccccc1/C=C(\C#N)C(=O)Nc1cccc(C)n1	inactive
S=C(NCCNCc1ccccc1)NC1CCCCC1	inconclusive: 28.2 µM [inhibitor, full curve, poor fit]
Cc1cc(O)c(C(C[N+](=O)[O-])c2ccc(Cl)cc2Cl)c(=O)o1 (stereo not given)	inconclusive: 89.1 µM [inhibitor, single point]
CCC1=Nc2cc(C(=O)NCc3ccco3)ccc2Sc2ccc(C)cc21	inconclusive: 44.7 µM [inhibitor, partial curve]
CCOc1ccc(C2c3[nH]c4ccccc4c3CCN2C(=O)Cn2cncn2)cc1 (stereo not given)	inconclusive: 25.1 µM [inhibitor, full curve]
CCc1noc(C)c1C(=O)N1CCCSC1=Nc1ccccc1C(C)C	inactive
Cc1ccc(NC(=S)Nc2cccnc2)c(S(=O)(=O)N2CCCCC2)c1	inconclusive: 39.8 µM [inhibitor, full curve, poor fit]
COC(=O)c1sccc1Oc1ccc(Cl)cc1N1C(=O)CCC1=O	inconclusive: 3.98 µM [inhibitor, single point]
COc1ccc(C(=O)NC(=O)NC2(C(Cl)(Cl)Cl)OCCO2)cc1	inconclusive: 100 µM [inhibitor, partial curve, poor fit]
Cc1oc2c(c1C(=O)NCCCC(=O)O)CCCC2	inconclusive: 89.1 µM [inhibitor, single point]
Cc1ccccc1OC(=O)n1c(=S)oc2cc(Cl)ccc21	inactive
CCOC(=O)C1(CC2CCCCO2)CCN(Cc2ccccc2-c2ccco2)CC1 (stereo not given)	inconclusive: 20 µM [inhibitor, full curve]
CCCCN(C)C(=O)C1CCN(Cc2cccc(OCc3ccccc3)c2)CC1	inconclusive: 89.1 µM [inhibitor, single point]
C=CCN1CN(S(=O)(=O)c2cccc(Cl)c2)c2nc3ccccc3nc21	inactive
CC(=O)N(Cc1ccc(F)cc1)C1=C(NCc2ccccc2)C(=O)c2ccccc2C1=O	active: 44.7 µM
